Measured values: ChEMBL document CHEMBL5606458, “ASAP - ZIKV NS2B-NS3 protease fluorescence single point” (2024)
Hit rate of the full screen: of about 2,700 compounds, about 160 (5.9%) showed an effect of 50% or more. This is one part of the list.

Molecular target: Nonstructural protein 3 (Zika virus) (UniProt A0A024AXB9)
[1] = PRVABC59, Concentration 50.0 uM, Number of replicates 1.0
[2] = PRVABC59, Concentration 15.0 uM, Number of replicates 1.0
[3] = PRVABC59, Concentration 10.0 uM, Number of replicates 1.0

Chain of UniProt A0A024AXB9 (A0A024AXB9 as listed by the source): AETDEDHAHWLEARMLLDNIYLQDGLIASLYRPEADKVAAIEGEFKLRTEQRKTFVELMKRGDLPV

## Cc1cnccc1NC(=O)c1cncc(S(C)(=O)=O)c1
PRVABC59, Concentration 49.5 uM, Number of replicates 2.0, Standard deviation 1.0745033884669215 %
  inhibition: 2.26%
PRVABC59, Concentration 99.01 uM, Number of replicates 2.0, Standard deviation 1.8668367871670457 %
  inhibition: 2%
PRVABC59, Concentration 198.0 uM, Number of replicates 2.0, Standard deviation 1.5508062721876872 %
  inhibition: 3.36%

## O=Cc1ccc(N2CCC(C(=O)N3CCN(c4ccc(Br)cn4)CC3)CC2)cc1
[1]
  inhibition: 0.176%

## CC(C)CC(=O)N1CCC(NC(=O)c2cc(Cl)ccc2NS(=O)(=O)c2ccc(Oc3ccccc3Cl)cc2)CC1
[2]
  inhibition: 7.39%

## O=C1NCCN(S(=O)(=O)c2ccc(Oc3ccccc3Cl)cc2)c2cc(F)c(F)cc21
PRVABC59, Concentration 49.5 uM, Number of replicates 2.0, Standard deviation 2.191742501212131 %
  inhibition: -2.08%
PRVABC59, Concentration 99.01 uM, Number of replicates 2.0, Standard deviation 1.8575848321541237 %
  inhibition: 1.42%
PRVABC59, Concentration 198.0 uM, Number of replicates 2.0, Standard deviation 0.35283723134337663 %
  inhibition: 5.56%

## O=C(OCc1ccccc1)N1CCN(C(=O)c2cc(Cl)ccc2NS(=O)(=O)c2ccc(Oc3ccccc3Cl)cc2)CC1
[2]
  inhibition: 19.4%

## CC(C)CN1CC[C@H](CNC(=O)C2CCN(c3ccc(C=O)cc3)CC2)C1
[1]
  inhibition: 26.2%

## CN(Cc1nc2ccccc2n1C)C(=O)C1CCN(c2ccc(C=O)cc2)CC1
[1]
  inhibition: 21.6%

## O=Cc1ccc(N2CCC(C(=O)NCCOc3ccccc3Cl)CC2)cc1
[1]
  inhibition: 24.9%

## O=C1c2c(O)ccc([N+](=O)[O-])c2C(=O)c2c([N+](=O)[O-])ccc(O)c21
PRVABC59, Concentration 100.0 uM, Number of replicates 2.0, Standard deviation 11.038302783376022 %
  inhibition: 30.6%

## O=Cc1ccc(N2CCC(C(=O)Nc3c(Br)cncc3[N+](=O)[O-])CC2)cc1
[1]
  inhibition: 22.5%

## CN(C(=O)C1CCN(c2ccc(C=O)cc2)CC1)[C@H]1CS(=O)(=O)C[C@@H]1O
[1]
  inhibition: 20.9%

## COc1cc2c(cc1OC)C(=O)[C@@H](CC1CCN(C(=O)c3cc(Cl)ccc3NS(=O)(=O)c3ccc(Oc4ccccc4Cl)cc3)CC1)C2
[2]
  inhibition: 0.527%

## Cc1cc(Br)cc(NC(=O)C2CCN(c3ccc(C=O)cc3)CC2)c1
[1]
  inhibition: 28.7%

## O=C(Nc1ccc(OCc2ccccc2)cc1)c1cc(Cl)ccc1NS(=O)(=O)c1ccc(Oc2ccccc2Cl)cc1
[2]
  inhibition: 29.8%

## CCN(Cc1cc(Br)ccc1F)C(=O)C1CCN(c2ccc(C=O)cc2)CC1
[1]
  inhibition: 26.9%

## O=Cc1ccc(N2CCC(C(=O)NC3CCN(CC(=O)NC4CC4)CC3)CC2)cc1
[1]
  inhibition: 27.4%

## c1ccc2c([C@H]3CCN(Cc4cocn4)C3)c[nH]c2c1
PRVABC59, Concentration 49.5 uM, Number of replicates 2.0, Standard deviation 2.680092134349069 %
  inhibition: 5.41%
PRVABC59, Concentration 99.01 uM, Number of replicates 2.0, Standard deviation 6.827048554046504 %
  inhibition: 4.89%
PRVABC59, Concentration 198.0 uM, Number of replicates 2.0, Standard deviation 1.5027961226993516 %
  inhibition: 3.45%

## Cc1cc(CO)c2cccc(NC(=O)[C@@H]3C[C@@H](O)CN3)c2n1
PRVABC59, Concentration 49.95 uM, Number of replicates 2.0, Standard deviation 2.1728568355691875 %
  inhibition: 17%
PRVABC59, Concentration 99.9 uM, Number of replicates 2.0, Standard deviation 5.153634365263829 %
  inhibition: 23.7%

## O=C(NCc1cccc(-c2ccccc2)c1)c1cc(Cl)ccc1NS(=O)(=O)c1ccc(Oc2ccccc2Cl)cc1
[2]
  inhibition: 54.4%

## CC(C)(CO)NC(=O)c1cc(Cl)cc(NC(=O)c2cc(S(N)(=O)=O)c[nH]2)c1
PRVABC59, Concentration 49.5 uM, Number of replicates 2.0, Standard deviation 1.280968155267238 %
  inhibition: -4.22%
PRVABC59, Concentration 99.01 uM, Number of replicates 2.0, Standard deviation 2.813227285299221 %
  inhibition: -4.14%
PRVABC59, Concentration 198.0 uM, Number of replicates 2.0, Standard deviation 3.346453070416073 %
  inhibition: -2.91%

## Cc1cc(C)n(CCCNC(=O)c2cc(Cl)ccc2NS(=O)(=O)c2ccc(Oc3ccccc3Cl)cc2)n1
[2]
  inhibition: 19.9%

## O=Cc1ccc(N2CCC(C(=O)NCC[C@H](O)c3ccccc3)CC2)cc1
[1]
  inhibition: 21.8%

## O=C(c1cc2ccccc2[nH]1)N1CC[C@H](n2cnc3ccccc32)C1
PRVABC59, Concentration 49.5 uM, Number of replicates 2.0, Standard deviation 3.2229539112941175 %
  inhibition: 2.94%
PRVABC59, Concentration 99.01 uM, Number of replicates 2.0, Standard deviation 2.038958995248382 %
  inhibition: 7.06%
PRVABC59, Concentration 198.0 uM, Number of replicates 2.0, Standard deviation 1.6347939830892861 %
  inhibition: 11.6%

## O=C(c1cc(Cl)ccc1NS(=O)(=O)c1ccc(Oc2ccccc2Cl)cc1)N1CCc2ccccc2[C@H]1c1ccccc1
[2]
  inhibition: 33.2%

## C[C@H]1CN(C(=O)C2CCN(c3ccc(C=O)cc3)CC2)CCN1C(=O)OC(C)(C)C
[1]
  inhibition: 20.3%

## O=Cc1ccc(N2CCC(C(=O)NCc3c(F)cccc3C(F)(F)F)CC2)cc1
[3]
  inhibition: 26.7%

## N[C@@H](Cc1ccc2ccccc2n1)C(=O)O
PRVABC59, Concentration 49.95 uM, Number of replicates 2.0, Standard deviation 2.5640517451549347 %
  inhibition: -7.74%
PRVABC59, Concentration 99.9 uM, Number of replicates 2.0, Standard deviation 2.076409673310798 %
  inhibition: -7.38%

## Cc1cc(CO)c2cccc(Cc3ccccc3NC(=O)c3cnn(Cc4c(C)noc4C)c3)c2n1
PRVABC59, Concentration 49.95 uM, Number of replicates 2.0, Standard deviation 1.0688290739582027 %
  inhibition: 0.076%
PRVABC59, Concentration 99.9 uM, Number of replicates 2.0, Standard deviation 1.8577267037145675 %
  inhibition: 3.25%

## O=C1C[C@@H](NS(=O)(=O)c2ccc(Oc3ccccc3Cl)cc2)CCN1
PRVABC59, Concentration 49.5 uM, Number of replicates 2.0, Standard deviation 3.5340016994019727 %
  inhibition: -4.3%
PRVABC59, Concentration 99.01 uM, Number of replicates 2.0, Standard deviation 1.221682206515692 %
  inhibition: 3.33%
PRVABC59, Concentration 198.0 uM, Number of replicates 2.0, Standard deviation 6.237343299795106 %
  inhibition: 6.53%

## O=C(Nc1c(F)cccc1Br)c1cc(Cl)ccc1NS(=O)(=O)c1ccc(Oc2ccccc2Cl)cc1
[2]
  inhibition: 28.6%

## O=C(c1cc(Cl)ccc1NS(=O)(=O)c1ccc(Oc2ccccc2Cl)cc1)N1CCCN(CCCc2ccccc2)CC1
[2]
  inhibition: 11.4%

## CCCN(C(=O)c1cc(Cl)ccc1NS(=O)(=O)c1ccc(Oc2ccccc2Cl)cc1)[C@@H](C)C(=O)Nc1ccccc1C
[2]
  inhibition: 16.4%

## CC(C)N(Cc1cnn(C)c1)C(=O)C1CCN(c2ccc(C=O)cc2)CC1
[3]
  inhibition: 22.2%

## Cc1cc(CO)c2cccc(CC(=O)Nc3ccc(C(=O)O)o3)c2n1
PRVABC59, Concentration 49.95 uM, Number of replicates 2.0, Standard deviation 1.3790313962849292 %
  inhibition: 42.9%
PRVABC59, Concentration 99.9 uM, Number of replicates 2.0, Standard deviation 0.49288480262410383 %
  inhibition: 40.6%

## Cc1cc(CO)c2cccc(Cc3cccc(C(=O)N[C@@H](C)C(N)=O)c3)c2n1
PRVABC59, Concentration 49.95 uM, Number of replicates 2.0, Standard deviation 0.7183540891801647 %
  inhibition: -2.76%
PRVABC59, Concentration 99.9 uM, Number of replicates 2.0, Standard deviation 0.8913881864758827 %
  inhibition: 0.968%

## O=C(NCc1cccc(OC2CCCC2)c1)c1cc(Cl)ccc1NS(=O)(=O)c1ccc(Oc2ccccc2Cl)cc1
[2]
  inhibition: 15.9%

## COc1ccc(C[C@H]2c3cc(OC)c(OC)cc3CCN2C(=O)C2CCN(c3ccc(C=O)cc3)CC2)cc1OC
[1]
  inhibition: 23%

## CN(C)Cc1ccc(S(=O)(=O)Nc2cc(Cl)cc(C(=O)NC(C)(C)CO)c2)cc1
PRVABC59, Concentration 49.5 uM, Number of replicates 2.0, Standard deviation 0.8292029981621207 %
  inhibition: -3.27%
PRVABC59, Concentration 99.01 uM, Number of replicates 2.0, Standard deviation 0.14749390788823794 %
  inhibition: -3%
PRVABC59, Concentration 198.0 uM, Number of replicates 2.0, Standard deviation 1.088216371392123 %
  inhibition: -2.39%

## Cc1ccc2n1CCN(C(=O)c1cc(Cl)ccc1NS(=O)(=O)c1ccc(Oc3ccccc3Cl)cc1)[C@H]2C
[2]
  inhibition: 8.22%

## COc1cccc(N2C[C@@H](NC(=O)C3CCN(c4ccc(C=O)cc4)CC3)CC2=O)c1
[1]
  inhibition: 22.7%

## CN(C)Cc1ccc(CN(C)C(=O)C2CCN(c3ccc(C=O)cc3)CC2)cc1
[1]
  inhibition: 24.4%

## CN(Cc1ccc(Cl)cc1)C(=O)C1CCN(c2ccc(C=O)cc2)CC1
[3]
  inhibition: 24%

## CNC(=O)c1cc(Cl)ccc1NS(=O)(=O)c1ccc(N2CCN(C)CC2)cc1
PRVABC59, Concentration 49.5 uM, Number of replicates 2.0, Standard deviation 2.486001218656217 %
  inhibition: -1.18%
PRVABC59, Concentration 99.01 uM, Number of replicates 2.0, Standard deviation 0.5614202987498508 %
  inhibition: -4.77%
PRVABC59, Concentration 198.0 uM, Number of replicates 2.0, Standard deviation 0.9410855164569579 %
  inhibition: -8.15%

## O=Cc1ccc(N2CCC(C(=O)NCC(=O)c3ccc(O)cc3)CC2)cc1
[1]
  inhibition: 25.6%
